For part of its entries the source gives two or more results. This is not the full list of results. An entry can have further records. How the calls were made is not given here. The records of an entry do not match, cause unknown; dose, time, organism, isomer or construct need not be as stated for each record.
Tested on: CCRIS mutagenicity, Ames/micronucleus/aberration tests
Assay: CCRIS mutagenicity studies
Details: Test System: AMES SALMONELLA TYPHIMURIUM, Metabolic Activation: RAT, LIVER, S-9, PCB, Method: PREINCUBATION

## Cc1ccccc1N=Nc1ccc(N=Nc2c(O)ccc3ccccc23)c(C)c1
Strain/Indicator: TA98
  mutagenic call: inactive; negative and active; positive
Strain/Indicator: TA100
  mutagenic call: inactive; negative and active; positive

From PubChem BioAssay AID1259407 (Chemical Carcinogenesis Research Information System (CCRIS), 2018)
